# Reference: PubChem BioAssay AID686978 (National Center for Advancing Translational Sciences (NCATS), 2013)
# Several values for one entry are separate records, joined by “and”; a condition that tells them apart may be missing. Identical values can stand only once. Hit rate of the full screen: of about 420,000 compounds, about 64,000 (15%) were called active. The inconclusive results got no clear call from the source; some entries with a clear call stand among them for comparison. Calls follow the shape of the dose curve; as a rule, active = well fitted inhibition curve with a large enough effect; inconclusive = small, poorly fitted or top-dose-only effect; inactive = flat fitted curve, though single readings scatter. Potencies beside an inconclusive call are fits to weak or partial responses and may not hold up.
# Test: qHTS for Inhibitors of human tyrosyl-DNA phosphodiesterase 1 (TDP1): qHTS in cells in absence of CPT; also: nearly all actives have a fitted effect of over 55% in size
# Conditions: DT40 Tdp1-/- hTDP1 cells, no CPT, ATP luminescence, 48 h; activity change, negative = growth inhibition: at 46.2 µM (top of the series) unless noted
# How it was run: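 Chicken DT40 Tdp1-/- cells stably complemented with human TDP1 were seeded at 400 cells/well with DMSO in place of 20 nM camptothecin. After compound pinning, cells grew at least 48 hr at 37 °C; viability read by CellTiter-Glo luminescence.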
# % is scaled to controls: 0 for no effect and ±100 for the full control effect; potency is read from the fitted curve at half-maximal effect; tags tell the direction and shape of the fitted curve.
SMILES,Potency,"activity change, negative = growth inhibition"
CN(C(=O)c1cccc(NC(=O)Cc2ccccc2)c1)c1ccccc1,"inconclusive: 14.6 µM [inhibitor, single point]",–
C=CCN=c1scc(-c2ccco2)n1/N=C/c1ccc(O)c(O)c1O,active: 5.8 µM,–
COc1ccc(-c2noc(C(C)NS(=O)(=O)c3ccc(NC(C)=O)cc3)n2)cc1 (stereo not given),"inconclusive: 29.1 µM [inhibitor, single point]",–
CCOC(=O)C1CCN(C(=O)Cn2nc(CC)n3cccc3c2=O)CC1,"inconclusive: 23.1 µM [inhibitor, partial curve, poor fit]",–
COc1cc(C)ccc1OCCOc1c(Cl)cc(Cl)cc1Cl,"inconclusive: 29.1 µM [inhibitor, single point]",–
Nn1c(C2COc3ccccc3O2)n[nH]c1=S (stereo not given),"inconclusive: 29.1 µM [inhibitor, single point]",–
CCOC(=O)c1c(NC(=O)CSc2c[nH]c3ccccc23)sc2c1CCCC2,"inconclusive: 29.1 µM [inhibitor, single point]",–
CN(c1ccc(C(=O)NC2CCCC2)cc1)S(=O)(=O)c1ccccc1,"inconclusive: 13 µM [inhibitor, partial curve]",–
O=[N+]([O-])c1ccc(O)c(/C=N/Nc2ncnc3c2cnn3-c2ccccc2)c1,active: 3.66 µM,–
Cc1ccc(C(=O)C2CCN(C(=S)NCC3CCCO3)CC2)cc1 (stereo not given),active: 10.3 µM,–
O=C(Nc1ccc(Nc2ccccc2)cc1)c1ccccc1F,"inconclusive: 6.51 µM [inhibitor, single point]",–
CC1CCCC(=C\c2ccccc2)/C1=N/O (stereo not given),"inconclusive: 29.1 µM [inhibitor, single point]",–
O=C1N(Cc2cccc(Cl)c2)C[C@@H]2C[C@@H](c3cccc4cccnc34)N3CCC[C@@]123,"inconclusive: 23.1 µM [inhibitor, single point]",–
Cc1ccc(S(=O)(=O)n2cccc2C)cc1,–,inactive: -2.11%
CCOC(=O)N1CCN(C(=O)c2cc3cc(F)ccc3[nH]2)CC1,"inconclusive: 29.1 µM [inhibitor, single point]",–
CCN(CC)C(=O)C1=C(C)N(Cc2ccc(C(C)(C)C)cc2)C(=O)C(CC(=O)NC(c2ccccc2)c2ccccc2)C1 (stereo not given),active: 11.6 µM,–
O=C(CCc1nnc2ccc(NCc3ccco3)nn12)Nc1cc(F)ccc1F,"inconclusive: 23.1 µM [inhibitor, partial curve]",–
Cc1ccc([C@H]2N[C@]3(CCCN(CC4CCCCC4)C3=O)[C@H]3C(=O)N(Cc4ccccc4)C(=O)[C@@H]23)cc1,active: 23.1 µM,–
CC(=O)Nc1nc(C)c(Oc2ccc(Cl)cc2)c(=O)[nH]1,–,inactive: 1.85%
O=C(CCNS(=O)(=O)c1cccc2nonc12)N1CCN(c2cccc(Cl)c2)CC1,active: 11.6 µM,–
CN1CCN(C(=O)/C(=C/c2ccccc2Cl)NC(=O)c2ccccc2)CC1,–,inactive: -16.5%
O=C(Nc1cccc(C(=O)Nc2ccc(Br)cc2)c1)c1ccccc1,active: 11.6 µM,–
CCc1ccc2c(c1)c1nnc(NN)nc1n2CC,active: 18.4 µM,–

SMILES,Potency,"activity change, negative = growth inhibition"
CCN(CC)C(=O)C1=C(C)N(Cc2ccccc2)C(=O)C(CC(=O)NCC2CCCCC2)C1 (stereo not given),"inconclusive: 23.1 µM [inhibitor, single point]",–
COc1cc(C(=O)Nc2cccc(NC(=O)c3cccs3)c2)cc(OC)c1OC,active: 20.6 µM,–
CCc1c(C)nc2cc(-c3cccc(Br)c3)[nH]n2c1=O,active: 1.46 µM,–
N#Cc1ccc(NC(=S)NC(=O)C2CCCCC2)cc1,"inconclusive: 29.1 µM [inhibitor, single point]",–
O=C(CCC(=O)c1ccc(Cl)cc1)OCc1nc2ccsc2c(=O)[nH]1,–,inactive: -2.45%
O=C(CSc1ccc(Cl)cc1)Nn1cnnc1,"inconclusive: 23.1 µM [inhibitor, single point]",–
COc1ccccc1-c1nnc(N)s1,–,inactive: -1.78%
Cc1ccc(C(=O)OCC(=O)NCc2ccccc2)cc1S(=O)(=O)N1CCCCC1,"inconclusive: 18.4 µM [inhibitor, single point]",–
CCc1cccc(CC)c1-n1c(-c2cccnc2)n[nH]c1=S,–,inactive: -3.71%
Cc1ccc(S(=O)(=O)N2CCC(Oc3ccc(-n4cnnn4)cc3)CC2)cc1,"inactive and inconclusive: 6.51 µM [inhibitor, single point]",–
Cc1csc(NC(=O)CSc2nnc(-c3ccoc3C)n2C(C)c2ccccc2)n1 (stereo not given),"inconclusive: 14.6 µM [inhibitor, single point]",–
CCOc1ccc(/C=C/C(=O)N(CC)CC(=O)Nc2c(F)cccc2F)cc1OC,"inconclusive: 29.1 µM [inhibitor, single point]",–
O=C(c1ccc(Cl)c(S(=O)(=O)NCc2ccccc2)c1)N1CCN(c2ccccn2)CC1,"inconclusive: 18.4 µM [inhibitor, single point]",–
OCCSc1nc(-c2cccnc2)nc2ccccc12,"inconclusive: 20.6 µM [inhibitor, single point]",–
CCOc1ccc(NC(=O)CN2CCCC2c2cccs2)cc1S(=O)(=O)N1CCCCC1 (stereo not given),active: 14.6 µM,–
CC(=O)NC(CC(=O)Nc1cccc(S(=O)(=O)N2CCOCC2)c1)c1ccccc1 (stereo not given),"inconclusive: 16.4 µM [inhibitor, partial curve]",–
COc1ccc(-c2c(C)nn3c(C)cc(C)nc23)cc1,"inconclusive: 25.9 µM [inhibitor, single point]",–
CCCN(CC(=O)Nc1ccccc1C)C(=O)c1ccc(S(=O)(=O)N2CCC(C)CC2)cc1,"inconclusive: 18.4 µM [inhibitor, single point]",–
COc1ccc(CNCCSc2nnnn2-c2ccccc2)cc1,"inconclusive: 29.1 µM [inhibitor, single point]",–
CC1(C)CC(=O)c2c(S(C)(=O)=O)sc(Br)c2C1,"inconclusive: 23.1 µM [inhibitor, single point]",–
CCCn1c(CN2CCN(C(C)=O)CC2)nc2cc(S(=O)(=O)N(C)C)ccc21,"inconclusive: 32.6 µM [inhibitor, single point]",–
CN1CCN(c2ccc(-c3cc(NC=O)c4ncc(-c5ccc(F)c(Cl)c5)n4c3)cc2)CC1,active: 16.4 µM,–
